We go through 25 cell lines from the supplement of paper PMC4967469.

A lower IC50 marks a more sensitive line; fits outside the tested doses are given as limits. AUC, from the same fit, is the share of area under the viability curve across the 256-fold dose range; the more sensitive the line, the further below 1. The top dose, if marked as inferred, was calculated from the reported fits. For some of these results: An entry number marks a drug with two screens in the source, which often give different values.

Compound in the first test: O=C(c1cc(Cc2n[nH]c(=O)c3ccccc23)ccc1F)N1CCN(C(=O)C2CC2)CC1 [Olaparib]
Put plainly: Viability of human cancer cell lines after 72 h of drug (GDSC screen). As to conditions: top dose 5 µM; screen: GDSC drug entry 1017; top dose inferred. On the procedure: (§1)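 Human cancer cell lines in 384-well plates, medium with 10% serum, drug for 72 h over a 256-fold dose range (nine 2-fold or five 4-fold steps up to the top dose). Adherent lines were fixed and stained with the nucleic acid dye Syto60, suspension lines read with resazurin; signal relative to control wells, capped at 0 and 100%. One two-parameter sigmoid per drug and line, fitted in a mixed model over all curves with the slope shared within a line.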
As for “NCI-H1993 (lung adenocarcinoma, adherent)”, the AUC came to 0.974 and the IC50 was greater than 5 µM.
On to “NCI-H2087 (lung adenocarcinoma, semi-adherent)”, for which the AUC worked out at 0.982 and the IC50 was greater than 5 µM.
The matching figures for “NCI-H2291 (lung adenocarcinoma, adherent)”: 0.975 and greater than 5 µM.
The like results for “NCI-H2347 (lung adenocarcinoma, adherent)” were, in that order, 0.965 and greater than 5 µM.
As to PC-14 (lung adenocarcinoma, adherent), the AUC was 0.981 and the IC50 was greater than 5 µM.
The like results for PFSK-1 (medulloblastoma, adherent) were, in that order, 0.912 and greater than 5 µM.
The like results for RCM-1 (large intestine, adherent) were, in that order, 0.985 and greater than 5 µM.

Staying with this test, now noted: top dose 10 µM; screen: GDSC drug entry 1495.
“LOU-NH91 (lung squamous cell carcinoma, adherent)”: the AUC is 0.977 and the IC50 is greater than 10 µM.
As for LS-180 (large intestine, adherent), the AUC turned out to be 0.903 and the IC50 was greater than 10 µM.
Consider M059J (glioma, adherent), for which the AUC stood at 0.911 and the IC50 was greater than 10 µM.
The like results for MES-SA (uterus, adherent) were, in that order, 0.967 and greater than 10 µM.
The matching figures for MFE-280 (endometrium, adherent): 0.968 and greater than 10 µM.
The like results for MFE-296 (endometrium, adherent) were, in that order, 0.895 and greater than 10 µM.
In the case of MOG-G-CCM (glioma, adherent), the AUC was 0.938 and the IC50 is greater than 10 µM.
Consider NCI-H28 (mesothelioma, adherent), for which the AUC is 0.904 and the IC50 is greater than 10 µM.
The matching figures for NCI-H630 (large intestine, adherent): 0.987 and greater than 10 µM.
In the case of “NCI-H650 (lung adenocarcinoma, adherent)”, the AUC amounted to 0.976 and the IC50 was greater than 10 µM.
The matching figures for “NCI-H810 (large cell lung carcinoma, adherent)”: 0.899 and greater than 10 µM.
For “NCI-H1437 (lung adenocarcinoma, adherent)”, the AUC was determined as 0.981 and the IC50 is greater than 10 µM.
The like results for “NCI-H1563 (lung adenocarcinoma, adherent)” were, in that order, 0.983 and greater than 10 µM.
The like results for “NCI-H1623 (lung adenocarcinoma, adherent)” were, in that order, 0.891 and greater than 10 µM.
The matching figures for “NCI-H1651 (lung adenocarcinoma, adherent)”: 0.792 and 4.94 µM.
“NCI-H1755 (lung adenocarcinoma, adherent)”: the AUC was determined as 0.98 and the IC50 is greater than 10 µM.
Consider “NCI-H1781 (lung adenocarcinoma, adherent)”, for which the AUC worked out at 0.954 and the IC50 is greater than 10 µM.
The like results for “NCI-H1993 (lung adenocarcinoma, adherent)” were, in that order, 0.978 and greater than 10 µM.
As for “NCI-H2087 (lung adenocarcinoma, semi-adherent)”, the AUC worked out at 0.945 and the IC50 is greater than 10 µM.
For the cell line “NCI-H2291 (lung adenocarcinoma, adherent)”, the AUC is 0.974 and the IC50 is greater than 10 µM.
Take “NCI-H2347 (lung adenocarcinoma, adherent)”: the AUC came to 0.928 and the IC50 is greater than 10 µM.
On to NUGC-4 (stomach, adherent), for which the AUC stood at 0.986 and the IC50 was greater than 10 µM.
The matching figures for PC-14 (lung adenocarcinoma, adherent): 0.91 and greater than 10 µM.
Regarding RCM-1 (large intestine, adherent), the AUC came out at 0.982 and the IC50 is greater than 10 µM.

Compound in the next test: CC(C)=CC[C@@H](O)C1=CC(=O)c2c(O)ccc(O)c2C1=O [Shikonin]
The description is as above. Conditions: top dose 16 µM; top dose inferred. Here is the method: as §1
For “LOU-NH91 (lung squamous cell carcinoma, adherent)”, the AUC turned out to be 0.738 and the IC50 was 5.15 µM.
With LS-180 (large intestine, adherent), the AUC was 0.571 and the IC50 was 1.61 µM.
M059J (glioma, adherent): the AUC was found to be 0.288 and the IC50 is 0.238 µM.
MES-SA (uterus, adherent): the AUC turned out to be 0.316 and the IC50 came to 0.335 µM.
On to MFE-280 (endometrium, adherent), for which the AUC was 0.672 and the IC50 worked out at 3.45 µM.
The matching figures for MFE-296 (endometrium, adherent): 0.406 and 0.541 µM.
The like results for MOG-G-CCM (glioma, adherent) were, in that order, 0.425 and 0.602 µM.
The matching figures for NCI-H28 (mesothelioma, adherent): 0.541 and 1.34 µM.
For the cell line NCI-H630 (large intestine, adherent), the AUC came out at 0.554 and the IC50 amounted to 1.42 µM.
Regarding “NCI-H650 (lung adenocarcinoma, adherent)”, the AUC was 0.5 and the IC50 stood at 1 µM.
With “NCI-H810 (large cell lung carcinoma, adherent)”, the AUC was found to be 0.414 and the IC50 amounted to 0.589 µM.
With “NCI-H1437 (lung adenocarcinoma, adherent)”, the AUC was found to be 0.61 and the IC50 was 2.03 µM.
Consider “NCI-H1563 (lung adenocarcinoma, adherent)”, for which the AUC amounted to 0.407 and the IC50 is 0.53 µM.
Take “NCI-H1623 (lung adenocarcinoma, adherent)”: the AUC was found to be 0.692 and the IC50 was 3.92 µM.
For “NCI-H1651 (lung adenocarcinoma, adherent)”, the AUC came out at 0.818 and the IC50 turned out to be 9.95 µM.
Turning to “NCI-H1755 (lung adenocarcinoma, adherent)”, the AUC was 0.858 and the IC50 is greater than 16 µM.
The matching figures for “NCI-H1781 (lung adenocarcinoma, adherent)”: 0.59 and 1.77 µM.
For the cell line “NCI-H1993 (lung adenocarcinoma, adherent)”, the AUC was found to be 0.608 and the IC50 was 2.18 µM.
As to “NCI-H2087 (lung adenocarcinoma, semi-adherent)”, the AUC turned out to be 0.361 and the IC50 worked out at 0.401 µM.
“NCI-H2291 (lung adenocarcinoma, adherent)”: the AUC is 0.954 and the IC50 is greater than 16 µM.
Regarding “NCI-H2347 (lung adenocarcinoma, adherent)”, the AUC was 0.476 and the IC50 turned out to be 0.849 µM.
The like results for NUGC-4 (stomach, adherent) were, in that order, 0.607 and 1.97 µM.
The like results for PC-14 (lung adenocarcinoma, adherent) were, in that order, 0.514 and 1.09 µM.
For PFSK-1 (medulloblastoma, adherent), the AUC worked out at 0.846 and the IC50 is 12.7 µM.
The like results for RCM-1 (large intestine, adherent) were, in that order, 0.6 and 1.99 µM.
